In PubChem BioAssay AID485294 (National Center for Advancing Translational Sciences (NCATS), 2010):
The whole screen tested about 370,000 compounds, of which about 150 (0.041%) were called active. Inconclusive means that the source gave no clear call. Such entries were picked first, then a sample of the others. Calls follow the shape of the dose curve; as a rule, active = well fitted inhibition curve with a large enough effect; inconclusive = small, poorly fitted or top-dose-only effect; inactive = flat fitted curve, though single readings scatter. Potencies of inconclusive entries are left out as doubtful fits.

Molecular target: Beta-lactamase (Escherichia coli (strain K12)) (UniProt P00811)
Sequence of UniProt P00811 (P00811 whole entry, looked up): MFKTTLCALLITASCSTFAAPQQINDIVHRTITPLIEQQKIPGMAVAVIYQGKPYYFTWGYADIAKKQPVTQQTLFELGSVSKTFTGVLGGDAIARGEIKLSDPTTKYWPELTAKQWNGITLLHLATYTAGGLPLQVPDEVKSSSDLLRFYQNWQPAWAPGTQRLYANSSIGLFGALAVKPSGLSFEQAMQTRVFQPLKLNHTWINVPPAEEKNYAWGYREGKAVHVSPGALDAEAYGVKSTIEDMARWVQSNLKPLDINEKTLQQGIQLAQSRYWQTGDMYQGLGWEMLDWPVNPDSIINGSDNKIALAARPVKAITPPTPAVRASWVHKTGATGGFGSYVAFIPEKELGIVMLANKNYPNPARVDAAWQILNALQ
Assay: qHTS Inhibitors of AmpC Beta-Lactamase (assay with detergent); also: nearly all actives have a fitted effect of over 25% in size;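 as to activity change, negative = inhibition: 0% = no-compound wells and -100% = no-enzyme wells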
Conditions: AmpC hydrolysis of nitrocefin, absorbance 480 nm, 0.01% Triton; activity change, negative = inhibition: at 114 µM (top of the series)
In short: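 AmpC (5.3 nM in the dispensed reagent) in 20 mM phosphate pH 7.0 with 0.01% (detergent screen) or 0.0001% Triton X-100 was preincubated with compounds for 15 min at room temperature. Nitrocefin was then added from an 800 uM solution, and hydrolysis was followed at 480 nm.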
Potency is read from the fitted curve at half-maximal effect; tags tell the direction and shape of the fitted curve.

Compound	Potency	activity change, negative = inhibition
CC1CCCCC12NC(=O)N(Cn1nnc3ccccc3c1=O)C2=O (stereo unspecified)	inconclusive [inhibitor, full curve, poor fit]	
Cc1ccc(OCC(=O)N2CCc3ccccc3C2)c([N+](=O)[O-])n1	inconclusive [inhibitor, full curve, poor fit]	
O=S(=O)(NN1CCOCC1)c1ccc(Br)cc1		inactive: 3.55%
CCN(Cc1ccccc1)C(=O)CSc1ncn[nH]1	inconclusive [inhibitor, full curve, poor fit]	
CC(C)(C)C(=O)O/N=C(\N)COc1cccc(Cl)c1		inactive: 1.18%
Cn1cnc(S(=O)(=O)N2CCC(C(=O)NCc3ccccc3)CC2)c1		inactive: 2.31%
CCOC(=O)c1sc(-c2ccc(C)cc2)c(C#N)c1C	inconclusive [inhibitor, single point]	
COc1ccc2[nH]c(=O)c(CN(C(=O)c3cccc(Cl)c3)c3ccccc3OC)cc2c1		inactive: 14.1%
CS(=O)(=O)N1CCc2cc(S(=O)(=O)NCc3ccccc3Cl)ccc21		inactive: 2.24%
COc1ccc(Nc2nc(-c3cccc([N+](=O)[O-])c3)nc3ccccc23)c(OC)c1		inactive: 4.16%
COC(=O)CN(c1ccccn1)S(=O)(=O)c1ccccc1		inactive: -16.7%
Cc1cc2c(c(=O)o1)C(C13C=CC(CC1)C3)C(C#N)=C(N)O2 (stereo unspecified)	inconclusive [inhibitor, full curve, poor fit]	
Cc1ccc2oc(-c3cccc(NC(=O)c4ccc(Br)o4)c3)nc2c1		inactive: -4.16%
COCCNC(=O)C(c1ccc(O)cc1)N(Cc1cccs1)C(=O)CCC(=O)Nc1ccccn1 (stereo unspecified)	inconclusive [inhibitor, full curve, poor fit]	
O=C(/C=C/c1ccc(-c2ccc(F)cc2)o1)N1CCCC1		inactive: 1.7%
CCCCN1C(=O)/C(=C2\SC(N3CCOCC3)=NC2=O)c2ccccc21		inactive: 3.4%
COc1ccc(-n2cc(-c3ccccc3)c3c(NCCOCCO)ncnc32)cc1	inconclusive [inhibitor, single point]	
Cc1cc(C(=O)CCC(=O)NCC2COc3ccccc3O2)c(C)s1 (stereo unspecified)		inactive: -17.7%
CC(C(=O)N1CCCCCC1)N(c1ccc(Cl)cc1)S(C)(=O)=O (stereo unspecified)	inconclusive [inhibitor, partial curve, poor fit]	
Cc1nc2ccc(Oc3ccccc3)cc2s1	inconclusive [inhibitor, single point]	
COc1ccc(-c2csc(NC(=O)CSC(C)C(=O)Nc3cc(C)on3)n2)cc1OC (stereo unspecified)	inconclusive [inhibitor, full curve, poor fit]	
CC1CC(C)CN(S(=O)(=O)c2cccc3nonc23)C1 (stereo unspecified)	inconclusive [inhibitor, partial curve, poor fit]	
c1ccc(-c2nc3ccccn3c2NCc2ccc3c(c2)OCO3)cc1		inactive: -1.53%
Cc1ccccc1OCC(O)Cn1c(SC(C)C)nc2c1c(=O)[nH]c(=O)n2C (stereo unspecified)		inactive: -11%

Compound	Potency	activity change, negative = inhibition
CCCOc1ccc(NC(=O)CCC(=O)NC(C)c2ccccc2)cc1 (stereo unspecified)	inconclusive [inhibitor, partial curve, poor fit]	
N#Cc1ccccc1NC(=O)COC(=O)CCc1ccccc1		inactive: 1.75%
CN(C)c1ccc(Nc2cc(Cl)ncn2)cc1	inconclusive [inhibitor, full curve]	
Cc1ccc(S(=O)(=O)C(C#N)c2nc3ccccc3nc2N2CCCCC2)cc1 (stereo unspecified)	inconclusive [inhibitor, full curve, poor fit]	
O=C1CS(=O)(=O)C2(C(=O)Nc3ccccc32)N1c1cccc(Cl)c1 (stereo unspecified)		inactive: 3.1%
O=C(CSCc1ccco1)Nc1cc(C(F)(F)F)ccc1N1CCOCC1	inconclusive [inhibitor, full curve, poor fit]	
NS(=O)(=O)c1ccc(CNC(=O)c2ccc(NS(=O)(=O)c3ccc4[nH]c(=O)[nH]c4c3)cc2)cc1	inconclusive [inhibitor, partial curve, poor fit]	
CC(=O)Nc1ccc(Nc2ncnc3c2cnn3-c2ccccc2)cc1		inactive: 4.66%
CCCOc1ccc(-c2nc(C#N)c(NCC3CCCO3)o2)cc1 (stereo unspecified)	inconclusive [inhibitor, partial curve, poor fit]	
Cc1nc2ccc(S(=O)(=O)Nc3ccccc3C)cc2s1	inconclusive [inhibitor, single point]	
CCOC(=O)N1CCC(Nc2c(N3CCN(c4cccc(C(F)(F)F)c4)CC3)c(=O)c2=O)CC1	inconclusive [inhibitor, partial curve, poor fit]	
CN(c1nnc(N)s1)C1CCCCC1	inconclusive [inhibitor, full curve, poor fit]	
COc1ccc(-c2cc(C(F)(F)F)n3ncc(C(=O)N4CCc5ccccc5C4)c3n2)cc1		inactive: 0.767%
CC(=O)C1=C(C)NC(SCC(=O)c2ccc(Cl)cc2)=C(C#N)C1c1ccco1 (stereo unspecified)	inconclusive [inhibitor, full curve, poor fit]	
O=[N+]([O-])c1cccc2ccc(/C=C/c3ccc(Cl)cc3)nc12		inactive: 0.0501%
NC(=O)c1oc2ccccc2c1NC(=O)c1ccco1	inconclusive [inhibitor, full curve, poor fit]	
CCCCP(=O)(c1ccccn1)c1ccccn1	inconclusive [inhibitor, full curve, poor fit]	
Cn1c2ccccc2c2cc(C(=O)NNS(=O)(=O)c3ccc(F)cc3)sc21		inactive: 0.0271%
CCC1CCCCN1S(=O)(=O)c1c(C)n(C)c(=O)n(C)c1=O (stereo unspecified)	inconclusive [inhibitor, full curve, poor fit]	
CCOC(=O)C1CCCN(C(=O)CC(c2ccccc2)c2ccccc2)C1 (stereo unspecified)	inconclusive [inhibitor, full curve, poor fit]	
CCOC(=O)CC(=O)Nc1ccc(Br)cc1C(=O)O	inconclusive [inhibitor, partial curve, poor fit]	
COc1ccc(OCC#CCN2CCCCCC2)cc1	inconclusive [inhibitor, full curve, poor fit]	
CCOC(=O)c1ccc(NC(=O)CSc2nc3ncc(Br)c(C)c3[nH]2)cc1		inactive: -4.7%
CCOC(=O)c1c(NC(=O)COC(=O)C2CCC2)sc(C(=O)N(C)C)c1C	inconclusive [inhibitor, single point]	

Compound	Potency	activity change, negative = inhibition
O=C(CSc1ccccn1)Nc1ccc2c(c1)OCO2		inactive: -1.86%
CN(C(=O)CSc1n[nH]c(-c2cccs2)n1)C1CCS(=O)(=O)C1 (stereo unspecified)	inconclusive [inhibitor, full curve]	
Cc1ccc(NC(=O)c2noc(C(C)C)c2[N+](=O)[O-])cc1		inactive: 2.77%
COc1ccccc1NC(=O)C(Cc1ccccc1)NS(=O)(=O)c1ccc2c(c1)CCN2C(C)=O (stereo unspecified)		inactive: 1.72%
CC1CCC(NC(=O)CN2CCCN(Cc3ccc(F)cc3Cl)C2=O)CC1 (stereo unspecified)	inconclusive [inhibitor, single point]	
COCCN1C(=S)N[C@@H](c2ccccc2)C(C(=O)OC)=C1C	inconclusive [inhibitor, partial curve]	
O=C(CN1CCCc2ccccc21)N/N=C/c1ccc(O)cc1O	inconclusive [inhibitor, full curve, poor fit]	
COc1ccc(N/N=C(\C#N)C(=N)N2CCOCC2)cc1	inconclusive [inhibitor, single point]	
O=C(c1cccc(Cl)c1)N1CCN(c2ncccn2)CC1	inconclusive [inhibitor, full curve, poor fit]	
O=C(NCC1CCCO1)C(c1cccnc1)N(C(=O)Cc1cccs1)c1cccnc1 (stereo unspecified)	inconclusive [inhibitor, full curve, poor fit]	
Cc1cc(C)c(NC(=O)Cn2c(=O)n(-c3cccc(C(F)(F)F)c3)c(=O)c3c(C)c(C)sc32)c(C)c1		inactive: 24.5%
Cc1ccc(C(=O)Nc2ccc(C(=O)O)cc2NC(=O)c2ccc(C)cc2)cc1	inconclusive [inhibitor, full curve, poor fit]	
O=C(c1c[nH]c2ccccc12)N1CCOCC1	inconclusive [inhibitor, full curve, poor fit]	
CC(C)(C)NC(=O)C(c1ccc(F)cc1)N(C(=O)CCC(=O)Nc1ccccn1)C1CCCC1 (stereo unspecified)		inactive: -5.62%
COc1cccc(C(=O)NCc2cccnc2)c1	inconclusive [inhibitor, full curve, poor fit]	
COc1cc(C(=O)OC2CCOC2=O)c([N+](=O)[O-])cc1OC (stereo unspecified)	inconclusive [inhibitor, partial curve, poor fit]	
Cc1ccc2c(c1)c1c3n2CCN(CC(N)=O)C3CCC1 (stereo unspecified)	inconclusive [inhibitor, full curve, poor fit]	
COc1ccc2c(c1)c(C(C)=O)c(C)n2CCc1ccccc1		inactive: -7.16%
CN(C)C(=O)c1cnc(-c2ccccc2)nc1-c1ccccc1		inactive: 2.82%
Cc1ccc(-n2nnnc2SCC(=O)NC2CC2)cc1C	inconclusive [inhibitor, single point]	
CC1=CC(=C(C#N)C#N)c2ccccc2N1C	inconclusive [inhibitor, full curve, poor fit]	
Cc1cc(/C=C(/C#N)c2nc3ccccc3[nH]2)c(C)n1-c1ccccc1C(=O)O		inactive: 3.36%
COc1ccc(C(=O)NC2CC(C)(C)Cc3c2cnn3-c2ccccc2)cc1OC (stereo unspecified)	inconclusive [inhibitor, full curve, poor fit]	
